# Source: PubChem BioAssay AID624171 (National Center for Advancing Translational Sciences (NCATS), 2012)
# The campaign covered roughly 410,000 compounds. About 1,200 (0.29%) were called active. Inconclusive results, whose numbers are uncertain, are shown with a selection of clear calls. Calls come from the whole dose curve; as a rule, active = well fitted activation curve with a large enough effect; inconclusive = small, poorly fitted or top-dose-only effect; inactive = flat fitted curve, though single readings scatter. Potencies beside an inconclusive call are fits to weak or partial responses and may not hold up.
# Experiment: qHTS of Nrf2 Activators; note: nearly all actives have a fitted effect of over 65% in size
# Settings: AREc32 ARE-luciferase reporter (MCF7-derived line), luminescence, 24 h; series mostly up to 46.1 µM
# Outline: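 For detection, Steady-Glo was added and plates sat 30 min at RT; before that, AREc32_Fluc cells grown overnight in OPTI-MEM/5% FBS had been treated with 23 nL compound for 24 hr at 37 deg C.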
# Potency is the fitted concentration of half-maximal effect; tags give direction and shape of the fitted curve.
row,SMILES,Potency
1,O=C(NCc1ccco1)c1sc2cccc(F)c2c1Cl,"inconclusive: 11.2 µM [activator, partial curve, poor fit]"
2,O=C(Nc1cccc2ccccc12)c1cccc([N+](=O)[O-])c1,"inconclusive: 11.2 µM [activator, single point]"
3,O=C(Nc1ccc(Cl)cc1)c1sccc1-n1cccc1,active: 11.2 µM
4,O=c1oc2ccccc2cc1-c1nc2ccccc2o1,"inconclusive: 10 µM [activator, partial curve, poor fit]"
5,Cc1cc(=O)oc2cc(NC(=O)c3cc(F)ccc3F)ccc12,"inconclusive: 35.5 µM [activator, partial curve, poor fit]"
6,O=C(CCCN1C(=O)/C(=C/c2ccccc2)SC1=S)N1CCOCC1,"inconclusive: 11.2 µM [activator, partial curve]"
7,Cc1ccc(CNC(=O)c2ccc3c(O)c(S(=O)(=O)c4ccc(Cl)cc4)c(=O)[nH]c3c2)cc1,inactive
8,Cc1c(S(=O)(=O)c2ccccn2)c(N)n(Cc2ccccc2)c1C,inactive
9,O=C(OCc1ccccc1)N1CCC2CC1c1cc(-c3ccc4c(c3)OCO4)ccc12 (stereo not given),inactive
10,COc1cccc(CN2CCC(C(=O)N3CCN(Cc4ccc5c(c4)OCO5)CC3)CC2)c1OC,inactive
11,FC(F)(F)c1ccccc1Cc1c(-c2ccco2)nc2ccc(Br)cn12,"inconclusive: 17.8 µM [activator, single point]"
12,CC(C)c1ccc(OCCCCCN2CCOCC2)cc1,inactive
13,O=C(/C=C/c1ccco1)c1ccccc1O,"inconclusive: 17.8 µM [activator, single point]"
14,Cc1ccc(C(=O)C2COC(=O)C2)cc1 (stereo not given),"inconclusive: 31.6 µM [activator, partial curve, poor fit]"
15,O=C(Nc1ccccc1C(=O)N/N=C/c1ccco1)c1ccc(F)cc1,active: 2.82 µM
16,CC(=O)c1c(C)[nH]c(C(=O)CN2CCN(S(=O)(=O)c3ccccc3F)CC2)c1C,inactive
17,C=CCOC(=O)c1sc(NC(=O)c2ccco2)nc1C,active: 5.01 µM
18,COc1ccc(-c2cc(-c3ccccc3)c(C#N)c(S(C)=O)n2)cc1 (stereo not given),"inconclusive: 28.2 µM [activator, single point]"
19,COc1ccc(-c2oc3ncnc(N)c3c2-c2ccccc2)cc1,inactive
20,COC(=O)C(=Cc1ccccc1[N+](=O)[O-])C(=O)OC,"inconclusive: 3.55 µM [activator, single point]"
21,COC(=O)c1ccccc1NC(=O)CSc1nc(C)c(Cl)c(C)c1C#N,inactive
22,CCc1ccc(-n2c(SCC(=O)N3CCC(C(=O)O)CC3)nnc2-c2ccncc2)cc1,inactive
23,N#CC(c1ccccc1)c1ccc2c(C(F)(F)F)cc(C(F)(F)F)nc2n1 (stereo not given),"inconclusive: 14.1 µM [activator, single point]"
24,Nc1c(Cl)cc2c(c1Br)Cc1ccccc1-2,"inconclusive: 3.16 µM [activator, partial curve, poor fit]"

row,SMILES,Potency
1,COC(=O)[C@@]1(Cc2ccc(OC)cc2)[C@H]2c3cc(C(=O)N4CCCC4)n(CCn4cc([N+](=O)[O-])nc4C)c3C[C@H]2CN1C(=O)c1ccccc1,inactive
2,NC(=O)c1cc2ccccc2o/c1=N\NC(=O)c1ccncc1,"inconclusive: 12.6 µM [activator, partial curve]"
3,COc1ccc(C(C(=O)NC(C)(C)C)N(C[C@H]2CC[C@@H]([C@@H]3CC[C@H](CO)O3)O2)C(=O)c2ccccc2)cc1 (stereo not given in full),inactive
4,C#CCOCCOCCOCCNc1nc(N2CCN(C(=O)CCCCCCCCCCNC(=O)[C@H](CCCCN)n3cc(CCCC(=O)O)nn3)CC2)nc(N2CCN(C(=O)CCCCCCCCCCNC(=O)[C@@H]([C@H](C)O)n3cc(C)nn3)CC2)n1,inactive
5,Cc1c(C(=O)O/N=C(\N)c2ccccn2)cccc1[N+](=O)[O-],"inconclusive: 1 µM [activator, full curve, poor fit]"
6,CN(C(=O)c1cc(COc2c(F)cccc2F)on1)C1CCOC1 (stereo not given),inactive
7,COc1cccc(-c2noc(-c3cc(C(C)C)[nH]n3)n2)c1OC,"inconclusive: 2.51 µM [activator, full curve, poor fit]"
8,O=C(Nc1nc(-c2ccccc2)cs1)c1cccs1,"inconclusive: 14.1 µM [activator, single point]"
9,O=C(Nc1cccc(F)c1)c1cc(-c2ccco2)nc2ccccc12,"inconclusive: 10 µM [activator, partial curve, poor fit]"
10,COC(CNC(=O)c1ccc2nc(-c3ccccc3)c(-c3ccccc3)nc2c1)OC,inactive
11,Cc1csc(NC(=S)NC(=O)c2ccccc2)n1,active: 6.31 µM
12,CCOc1c(Cl)cc(C(=O)N(Cc2ccc(N(C)C)cc2)Cc2ccco2)cc1Cl,inactive
13,Cc1[nH][nH]c(=O)c1C(c1ccc(-c2cccc(Cl)c2)o1)c1c(C)[nH][nH]c1=O,"inconclusive: 17.8 µM [activator, single point]"
14,CC(C)CNC(=O)COC(=O)c1c2c(nc3ccccc13)/C(=C/c1cccs1)CC2,inactive
15,CCOC(=O)c1sc(Nc2ccc(OCC)cc2)nc1C,"inconclusive: 14.1 µM [activator, partial curve, poor fit]"
16,COc1cccc(C=Cc2nccc3ccccc23)c1OC,"inconclusive: 20 µM [activator, partial curve, poor fit]"
17,Cc1nn(-c2cccc(C(F)(F)F)c2)c(=O)c2ccccc12,active: 3.55 µM
18,CN=C(c1ccco1)n1c(=S)nc(-c2ccco2)n(C)c1=S,"inconclusive: 22.4 µM [activator, single point]"
19,COc1ccccc1Nc1nc(NCCC(C)C)nc(N)c1[N+](=O)[O-],inactive
20,COc1nn(-c2ccccc2)c(=O)c(Cl)c1Cl,"inconclusive: 3.55 µM [activator, single point]"
21,Cc1cccc(-n2cc[nH]c2=S)c1C,inactive
22,O=C(/C=C/c1ccccc1)Oc1ccccc1C(=S)N1CCOCC1,"inconclusive: 25.1 µM [activator, single point]"
23,O=C(CCN1C(=O)C2C3C=CC(C4CC34)C2C1=O)Nc1ccc(Cl)cc1O (stereo not given),"inconclusive: 28.2 µM [activator, single point]"
24,Cc1ccsc1/C=N\Nc1cn[nH]c(=O)c1Cl,"inconclusive: 11.2 µM [activator, partial curve, poor fit]"

row,SMILES,Potency
1,O=C(Nc1nc(-c2nc3ccccc3s2)cs1)c1ccco1,"inconclusive: 12.6 µM [activator, partial curve, poor fit]"
2,Cc1ccccc1C(=O)N1CCN(c2ccc(NC(=O)c3ccc([N+](=O)[O-])o3)cc2)CC1,"inconclusive: 3.98 µM [activator, single point]"
3,O=C(COC(=O)c1ccc(F)c([N+](=O)[O-])c1)NC(=O)NCc1ccccc1,"inconclusive: 35.5 µM [activator, single point]"
4,Cc1ccc(O)c(NC(=S)NC(=O)c2ccccc2Cl)c1,"inconclusive: 2.82 µM [activator, partial curve, poor fit]"
5,On1onc2c3cc(-c4ccccc4)nc3ccc21,"inconclusive: 3.55 µM [activator, partial curve, poor fit]"
6,O=C1Nc2ccc(Br)cc2/C1=C/C1CC=CCC1 (stereo not given),"inconclusive: 14.1 µM [activator, single point]"
7,COc1cccc(-c2[nH]nc3c2C(c2ccsc2)C(C#N)=C(N)O3)c1 (stereo not given),"inconclusive: 28.2 µM [activator, single point]"
8,Cn1ccnc1C(=O)c1ccc(NN)c([N+](=O)[O-])c1,"inconclusive: 22.4 µM [activator, single point]"
9,CCCc1ccc2oc(C(=O)N3CCN(CC(=O)NC(C)C)CC3)c(C)c2c1,inactive
10,COc1ccc(NC(C)=O)cc1NC(=O)C1(c2cccs2)CCOCC1,inactive
11,COC(=O)c1sccc1NC(=O)c1cccc(OC)c1,active: 6.31 µM
12,Cc1ccc(C(=O)/C=C/Nc2cccc([N+](=O)[O-])c2)o1,"inconclusive: 10 µM [activator, partial curve, poor fit]"
13,Cc1ccc([N+](=O)[O-])cc1S(=O)(=O)N(C(=O)c1ccncc1)c1ccc2oc3c(c2c1)CCCC3,inactive
14,CCOC(=O)[C@]12Cc3c(cc(OC)c(OC)c3OC)[C@H]1N(C1CCCCC1)C(=O)c1cc(OC)ccc12,inactive
15,Nc1ccc2c(Cl)cc(Cl)cc2c1,"inconclusive: 3.55 µM [activator, full curve]"
16,CCOc1ccc2[nH]c(=O)c(CN(CCOC)C(=O)N3CCOCC3)cc2c1,inactive
17,N#Cc1nnn(-c2cc(Cl)cc(Cl)c2)c1N,"inconclusive: 35.5 µM [activator, partial curve, poor fit]"
18,Cc1ccc(S(=O)(=O)CCSc2n[nH]c(=O)n2-c2ccccc2)cc1,"inconclusive: 25.1 µM [activator, single point]"
19,COc1cccc(C(=O)Nc2nc(SCc3ccc(Cl)cc3)n[nH]2)c1,inactive
20,COC(=O)[C@@]1(Sc2ccc(C)cc2)CC(=O)N(C(=O)/C=C/c2ccccc2)[C@@H]1c1ccccc1,"inconclusive: 2.82 µM [activator, full curve, poor fit]"
21,CCCCCn1c(-c2ccco2)nc2nc3ccccc3nc21,"inconclusive: 22.4 µM [activator, single point]"
22,CN(Cc1ccco1)C(=O)CSc1nn2c(=O)c(C(C)(C)C)nnc2s1,"inconclusive: 31.6 µM [activator, partial curve, poor fit]"
